The values that follow come from PMC4336329 (PLoS ONE, 2015).

Structures are written as SMILES. The whole screen tested about 310,000 compounds, of which about 2,200 (0.71%) showed an effect of 50% or more. Effects have a minus sign here. Some of the results follow.

Chain of human ether-à-go-go-related gene (hERG) potassium channel (Q12809 whole entry, looked up): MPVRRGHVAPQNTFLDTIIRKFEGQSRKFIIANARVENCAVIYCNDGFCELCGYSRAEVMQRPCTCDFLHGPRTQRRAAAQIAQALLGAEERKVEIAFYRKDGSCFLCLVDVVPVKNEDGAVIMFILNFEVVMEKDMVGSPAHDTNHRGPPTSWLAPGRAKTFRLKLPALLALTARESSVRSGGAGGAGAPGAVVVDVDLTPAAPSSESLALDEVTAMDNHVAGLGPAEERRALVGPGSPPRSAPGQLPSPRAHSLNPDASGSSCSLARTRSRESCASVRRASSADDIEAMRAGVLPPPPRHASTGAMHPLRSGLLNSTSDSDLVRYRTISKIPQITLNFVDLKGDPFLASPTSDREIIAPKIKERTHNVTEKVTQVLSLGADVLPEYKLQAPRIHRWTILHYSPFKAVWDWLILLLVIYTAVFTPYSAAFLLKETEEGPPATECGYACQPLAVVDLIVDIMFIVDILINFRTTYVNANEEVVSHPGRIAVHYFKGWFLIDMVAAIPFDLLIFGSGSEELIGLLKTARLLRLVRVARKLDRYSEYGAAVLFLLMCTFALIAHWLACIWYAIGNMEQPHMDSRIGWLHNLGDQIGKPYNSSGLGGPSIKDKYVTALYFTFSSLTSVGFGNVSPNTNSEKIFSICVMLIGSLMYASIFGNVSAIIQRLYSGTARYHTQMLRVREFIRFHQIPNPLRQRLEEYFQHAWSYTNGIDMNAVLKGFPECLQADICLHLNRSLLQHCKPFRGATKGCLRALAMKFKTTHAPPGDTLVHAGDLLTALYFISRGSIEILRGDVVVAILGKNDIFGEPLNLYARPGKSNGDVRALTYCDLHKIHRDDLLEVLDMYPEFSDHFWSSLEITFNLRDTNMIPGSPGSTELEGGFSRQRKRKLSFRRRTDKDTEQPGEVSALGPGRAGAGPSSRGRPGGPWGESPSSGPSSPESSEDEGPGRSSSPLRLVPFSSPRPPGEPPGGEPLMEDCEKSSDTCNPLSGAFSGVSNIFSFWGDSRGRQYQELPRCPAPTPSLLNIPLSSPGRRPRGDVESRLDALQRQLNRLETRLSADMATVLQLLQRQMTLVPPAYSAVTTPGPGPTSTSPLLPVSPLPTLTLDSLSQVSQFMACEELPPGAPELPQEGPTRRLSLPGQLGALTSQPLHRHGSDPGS

The assay addresses human ether-à-go-go-related gene (hERG) potassium channel (human, UniProt Q12809). The assay can be described thus: primary screen, population patch clamp on CHO cells stably expressing hERG.
For the molecule `O=C(N/N=C/c1ccccc1O)c1ccc2c(c1)OCO2`, the “hERG current change (%, negative = inhibition) at 1uM” value is 18.4%. With `Oc1oc(-c2ccccc2Br)nc1/C=N/c1ccccn1`, the “hERG current change (%, negative = inhibition) at 1uM” value is 18.6%.

Turning to `CCCc1cc(=O)oc2cc(C)cc(OCC(=O)Nc3cccnc3)c12`, the “hERG current change (%, negative = inhibition) at 1uM” value amounted to 4.3%.

`CN(C)C(CNC(=O)CCCc1c[nH]c2ccccc12)c1ccco1` (centres unmarked): the “hERG current change (%, negative = inhibition) at 1uM” value is given as -1.33%. Turning to `O=C(O)CCSC1CC(=O)N(c2ccccc2)C1=O` (centres unmarked), the “hERG current change (%, negative = inhibition) at 1uM” value is reported as 12.4%. For the molecule `Cc1sc2ncnc(N[C@@H](Cc3c[nH]c4ccccc34)C(=O)O)c2c1C`, the “hERG current change (%, negative = inhibition) at 1uM” value is 6.73%. In the case of `O=C(NCC(=O)N(Cc1cccs1)C(C(=O)NC1CCCC1)c1ccncc1)c1ccco1` (centres unmarked), the “hERG current change (%, negative = inhibition) at 1uM” value was -6.84%. With `Cc1c(C)c2ccc(OS(C)(=O)=O)cc2oc1=O`, the “hERG current change (%, negative = inhibition) at 1uM” value was 3.59%. On to `O=C1c2ccccc2N2C(=O)c3ccccc3[C@H]2N1c1ccccc1`, for which the “hERG current change (%, negative = inhibition) at 1uM” value amounted to 1.9%. For `COc1ccc(-c2nnc(NC(=O)C(C)C)o2)cc1`, the “hERG current change (%, negative = inhibition) at 1uM” value is listed as 8.72%. For `C=CCn1c(=O)c2c3c(sc2n2c(Nc4ccc(C(=O)OCC)cc4)nnc12)CCCC3`, the “hERG current change (%, negative = inhibition) at 1uM” value is listed as 12.7%. In the case of `O=C(Nc1ccc([N+](=O)[O-])cc1)c1cncc(Br)c1`, the “hERG current change (%, negative = inhibition) at 1uM” value was 4.11%. In the case of `O=C(Nc1ccc(NS(=O)(=O)c2ccccc2)cc1)c1cccnc1`, the “hERG current change (%, negative = inhibition) at 1uM” value was 10.4%.

`O=C(Nc1ccccc1[N+](=O)[O-])C1C(c2ccccc2)=C1c1ccccc1`: the “hERG current change (%, negative = inhibition) at 1uM” value is 11.7%.

As to `CN(/N=C/c1cccnc1)C1=NS(=O)(=O)c2ccccc21`, the “hERG current change (%, negative = inhibition) at 1uM” value amounted to 12.1%. `N#CC(C#N)C(c1ccsc1)c1c(-c2ccccc2)[nH][nH]c1=O` (centres unmarked): the “hERG current change (%, negative = inhibition) at 1uM” value is -5.71%. With `CC1c2cc3c(cc2CCN1CC(=O)Nc1ccccc1)OCCCO3` (centres unmarked), the “hERG current change (%, negative = inhibition) at 1uM” value is on record as 8.91%. Regarding `CN(C)P(=O)(NC(=O)c1cccn1C)N(C)C`, the “hERG current change (%, negative = inhibition) at 1uM” value came to 10.4%.

For `COc1ccccc1-c1nc(=S)c(C(C)=O)c(C)[nH]1`, the “hERG current change (%, negative = inhibition) at 1uM” value stood at 5.33%.

On to `Cc1cc(C)nc(SC(C)C(=O)N/N=C/c2cccs2)n1` (centres unmarked), for which the “hERG current change (%, negative = inhibition) at 1uM” value is 5.06%. Turning to `CCN(CC)Cc1c(O)ccc2c(C)c(CC(=O)OC)c(=O)oc12.Cl`, the “hERG current change (%, negative = inhibition) at 1uM” value is 17.9%. Regarding `CC(C)C(=O)N1CCN(c2nc3ccc(Cl)cc3s2)CC1`, the “hERG current change (%, negative = inhibition) at 1uM” value is -2.05%. For `COc1ccc(-c2cc(C(F)F)n3ncc(C(=O)Nc4c(C)n(C)n(-c5ccccc5)c4=O)c3n2)cc1`, the “hERG current change (%, negative = inhibition) at 1uM” value turned out to be 16.8%. With `COc1cc2c(cc1OC)C(COc1ccccc1OC)N(C(=O)c1ccco1)CC2` (centres unmarked), the “hERG current change (%, negative = inhibition) at 1uM” value is recorded as 11.5%. The same measure for `COc1ccc(OC)c(Nc2cc3ccccc3c(=O)[nH]2)c1`: 17.5%. With `Cc1ccc2[nH]c(=O)c(CN(Cc3cccnc3)Cc3nnnn3CC3CCCO3)cc2c1` (centres unmarked), the “hERG current change (%, negative = inhibition) at 1uM” value came out at 10.7%. Take `COc1ccc(C=C(c2ccc(OC)cc2)c2ccc(OC)cc2)cc1`: the “hERG current change (%, negative = inhibition) at 1uM” value is 10.4%. As to `Cc1c(CCC(=O)N[C@@H](CC(C)C)C(=O)O)c(=O)oc2cc3oc4c(c3cc12)CCCC4`, the “hERG current change (%, negative = inhibition) at 1uM” value worked out at 8.1%.

On to `CC(C)Nc1nc(NC(C)(C)C)nc(Oc2ccc(=O)n(-c3ccccc3)n2)n1`, for which the “hERG current change (%, negative = inhibition) at 1uM” value came out at 9.82%. For `CCOC(=O)COn1c(=O)c(-c2cccs2)[n+]([O-])c2ccccc21`, the “hERG current change (%, negative = inhibition) at 1uM” value is 7.22%. As for `CCn1ccnc1CN1CCCC(C(=O)c2cc(Cl)ccc2OC)C1` (centres unmarked), the “hERG current change (%, negative = inhibition) at 1uM” value is given as -30.6%. As to `Cc1ccc(S(=O)(=O)NC(=NCc2ccccc2)c2ccc(F)cc2)cc1`, the “hERG current change (%, negative = inhibition) at 1uM” value came to 4.58%.

As for `O=C(CN1C(=O)COc2ccccc21)N1CCc2ccccc21`, the “hERG current change (%, negative = inhibition) at 1uM” value was 12.5%. On to `COc1ccc(-c2nnc(SCc3c(C)noc3C)o2)cc1`, for which the “hERG current change (%, negative = inhibition) at 1uM” value was 7.08%.

With `CCC(C)[C@H](NC(=O)N1CCCCCC1)C(=O)O` (some centres unmarked), the “hERG current change (%, negative = inhibition) at 1uM” value stood at 15.8%.

In the case of `CC(C)(C)OC(=O)N1CCC[C@H]1C(=O)N/N=C/c1ccc2nccnc2c1`, the “hERG current change (%, negative = inhibition) at 1uM” value is reported as 14.8%. In the case of `Br.CCCN(CCC)C1CCc2ccc(O)cc2C1` (centres unmarked), the “hERG current change (%, negative = inhibition) at 1uM” value is on record as -48.9%. `O=C1Nc2ccccc2OCc2c1cccc2[N+](=O)[O-]`: the “hERG current change (%, negative = inhibition) at 1uM” value was -2.77%.

Take `CCOc1cc(C2C(C(=O)N3CCCCC3)=C(C)NC3=C2C(=O)CCC3)cc(Br)c1O` (centres unmarked): the “hERG current change (%, negative = inhibition) at 1uM” value is listed as 2.89%. As to `Cc1ccc(S(=O)(=O)NCC(c2ccco2)S(=O)(=O)c2ccccc2)cc1` (centres unmarked), the “hERG current change (%, negative = inhibition) at 1uM” value is recorded as -2.81%. Regarding `COc1ccc(-c2ccc(-c3noc(C)n3)c(OC)n2)cc1`, the “hERG current change (%, negative = inhibition) at 1uM” value is recorded as 3.17%. As to `CC(C)NC(=O)COc1ccc(S(=O)(=O)N(C)Cc2ccccc2)cc1`, the “hERG current change (%, negative = inhibition) at 1uM” value is 6.57%. For `Cc1ccc(Cn2c(SCC(=O)NCc3ccco3)nc3ccsc3c2=O)cc1`, the “hERG current change (%, negative = inhibition) at 1uM” value is recorded as -14.5%. Consider `CC1=NNC(=O)C1CCC(=O)N/N=C/c1ccco1` (centres unmarked), for which the “hERG current change (%, negative = inhibition) at 1uM” value came out at 1.35%.
